PubChem BioAssay AID463173 (ICCB-Longwood Screening Facility, Harvard Medical School, 2010)
Among all 52,000 compounds or so, about 1,700 (3.3%) were called active. Cut-off read from the data, not from the text of the source: active = survival mostly below about 52% (no sharp cut-off); inactive = mostly above about 56%. The list shows a part of the results.

Test system: Wild type
Assay: S. aureus survival, RN4220 and DeltatarO strains – OD600, teichoic acid synthesis inhibitors, primary screen (AID 463173)
Conditions: S. aureus RN4220 wild type/DeltatarO growth, OD600, 18 h, stronger effect = lower value, screened at 18.75 µg/mL (by protocol)

With `CCc1nn(CC(=O)NCCc2ccc(SC)cc2)c(=O)c2cc3sccc3n12` as the molecule, how does the survival read?
Its survival is inactive: 136%.

`CCCc1cc(=O)n2[nH]c(NCc3c(F)cccc3Cl)nc2n1` was tested. Which survival did it give?
The survival was inactive: 88%.

For `COc1ccc(N2CCN(S(=O)(=O)c3ccc4c(c3)C(C(C)C)C(=O)N4)CC2)cc1` (stereo unspecified), which survival is on record?
The survival was inactive: 140%.

With `Cc1nc2cc(-c3cccc(F)c3)nn2c(C)c1CCC(=O)NCCc1ccccc1` as the molecule, how does the survival read?
The survival was inactive: 128%.

For `N#Cc1cn(-c2ccccc2)nc1-c1cccnc1`, which survival is on record?
The survival was inactive: 121%.

With `COC(=O)CSc1nnc(COc2cccc3ccccc23)o1` as the molecule, how does the survival read?
The survival was inactive: 105%.

`Cc1ccc(NC(=O)c2ccc(=O)n(CC(=O)Nc3ccccc3)n2)cc1` was tested. Which survival did it give?
Its survival is inactive: 58%.

`CCOC(=O)COc1ccc(-c2nnn(CC(=O)Nc3ccccc3)n2)cc1` was tested. Which survival did it give?
Its survival is inactive: 105%.

How did the survival turn out when `Cn1c(=O)c2sccc2n2c(CCCC(=O)Nc3ccc(Oc4ccccc4)cc3)nnc12` was run?
The survival was inactive: 75%.

With `Cc1sc2c(c1C)c(=O)n(CCc1ccccc1)c(=O)n2Cc1ccc(C(C)(C)C)cc1` as the molecule, how does the survival read?
The survival was inactive: 85%.

`Cc1ccc(C)c(NC(=O)C2CCN(S(=O)(=O)c3c(C)noc3/C=C/c3cccs3)CC2)c1` was tested. Which survival did it give?
Its survival is inactive: 88%.

With `CCn1c(CNC(=O)c2ccc(OC)cc2)nnc1SCC(=O)Nc1cc(C)ccc1C` as the molecule, how does the survival read?
Its survival is inactive: 118%.

Which survival does the source give for `Cn1c(/C(C#N)=C/c2ccccc2Br)nc2ccccc21` here?
Its survival is inactive: 86%.

For `CCc1c(C)c2ccc(O)c(CN3CCN(c4ccc(F)cc4)CC3)c2oc1=O`, which survival is on record?
Its survival is inactive: 75%.

For `COc1ccccc1C(=O)NCc1nc2cccnc2n1Cc1ccc(F)cc1`, which survival is on record?
The survival was inactive: 67%.

With `CN1/C(=c2/sc(=C3C(=O)NC(=S)NC3=O)n(C)c2=O)Sc2ccccc21` as the molecule, how does the survival read?
The survival was inactive: 104%.

For `CCc1cccc(NS(=O)(=O)c2ccc3c(c2)CC(C)N3C(=O)C2CC2)c1` (stereo unspecified), which survival is on record?
The survival was inactive: 80%.

For `CCN=C1S/C(=C\c2cn(CC(=O)NCc3ccco3)c3ccccc23)C(=O)N1CC`, which survival is on record?
Its survival is inactive: 115%.

`COc1ccc(S(=O)(=O)N2Cc3ccccc3CC2C(=O)Nc2cc(Cl)ccc2Cl)cc1` (stereo unspecified) was tested. Which survival did it give?
Its survival is inactive: 78%.

`COc1ccccc1OCc1ccc(C(=O)NCc2ccncc2)o1` was tested. Which survival did it give?
Its survival is inactive: 116%.

How did the survival turn out when `COc1ccc(Cl)cc1NC(=O)CSc1nccn1-c1ccc(Cl)cc1` was run?
The survival was inactive: 66%.

With `CCOCN(C(=O)Cn1c(COC)nc2ccccc21)c1c(C)cccc1CC` as the molecule, how does the survival read?
Its survival is inactive: 111%.

With `N#CC(C#N)=Cc1cn(CCCOc2ccccc2Cl)c2ccccc12` as the molecule, how does the survival read?
The survival was inactive: 97%.

Which survival does the source give for `COc1ccc(C(=O)NCCn2cc(SCc3ccc(C(F)(F)F)cc3)c3ccccc32)cc1OC` here?
Its survival is inactive: 96%.

How did the survival turn out when `COc1cccc(CNC(=O)C2CCCN(S(=O)(=O)N(C)c3ccc(F)cc3)C2)c1OC` (stereo unspecified) was run?
The survival was inactive: 88%.

`Cc1cccc(NC(=O)CSC2=Nc3ccccc3C3=NC(CC(=O)NCc4cccs4)C(=O)N23)c1` (stereo unspecified) was tested. Which survival did it give?
The survival was inactive: 81%.

For `COc1ccccc1/C=C/c1nc(C#N)c(NC2CCCCC2)o1`, which survival is on record?
The survival was inactive: 113%.

Which survival does the source give for `COc1ccc(CNC(=O)CCCn2nc(C)n3c(cc4sccc43)c2=O)cc1` here?
The survival was inactive: 83%.

How did the survival turn out when `COCCn1c(C)cc(O)c(C(c2ccccc2OC)N2CCN(c3ccccc3)CC2)c1=O` (stereo unspecified) was run?
The survival was inactive: 74%.

With `O=C(Cc1ccccc1)Nc1cccnc1` as the molecule, how does the survival read?
Its survival is inactive: 116%.

`CCOC(=O)c1cnc2ccc(Br)cc2c1NCCN1CCOCC1` was tested. Which survival did it give?
The survival was inactive: 68%.

With `Cc1ccc(NC(=O)CN2C=NS(=O)(=O)c3ccccc32)cc1` as the molecule, how does the survival read?
The survival was inactive: 71%.

How did the survival turn out when `COc1ccc(-c2noc(CC(=O)N(C)c3cccc(C)c3)n2)cc1` was run?
The survival was inactive: 83%.

How did the survival turn out when `CCOC(=O)COc1ccc(CC)cc1C(=O)c1ccn2nc(-c3ccc(F)cc3)cc2n1` was run?
The survival was inactive: 75%.

`O=C(Nc1ccc2c(c1)CCCN2C(=O)c1cccs1)c1ccc(F)c(F)c1` was tested. Which survival did it give?
The survival was inactive: 73%.

For `COc1ccc(C(=O)c2cn(Cc3ccccc3F)c3cc4c(cc3c2=O)OCCO4)cc1OC`, which survival is on record?
The survival was inactive: 86%.

`COc1ccc(NC(=O)CSc2oc(-c3cccs3)nc2S(=O)(=O)c2ccccc2)c(OC)c1` was tested. Which survival did it give?
Its survival is inactive: 84%.

`Cc1ccc(Cl)cc1N1CCN(C(=O)CCS(=O)(=O)c2cc(Br)cc3c2N(C(=O)C2CC2)CC3)CC1` was tested. Which survival did it give?
Its survival is inactive: 80%.

For `Cc1ccc(N2CC(NC(=O)c3ccccc3C(F)(F)F)CC2=O)cc1C` (stereo unspecified), which survival is on record?
The survival was inactive: 47%.

How did the survival turn out when `COc1ccc(Cl)cc1S(=O)(=O)Nc1ccc2[nH]c(=O)[nH]c2c1` was run?
The survival was inactive: 80%.

`Clc1ccc2c(c1)-n1cc(-c3ccccc3)nc1CO2` was tested. Which survival did it give?
Its survival is inactive: 72%.

How did the survival turn out when `CCc1ccc(S(=O)(=O)c2cn(Cc3ccccc3)c3cc(N4CCCC4)c(F)cc3c2=O)cc1` was run?
Its survival is inactive: 78%.

`O=C(Nc1ccc(C(=O)OCc2cc(=O)n3nc(C4CC4)sc3n2)cc1)c1ccccc1` was tested. Which survival did it give?
The survival was inactive: 70%.

Which survival does the source give for `Cc1ccc(CCNC(=O)Cn2c(-c3cccs3)cc3ccccc32)cc1` here?
The survival was inactive: 119%.

`Cc1cccc(CNC(=O)c2cc3cc(S(=O)(=O)N4CCCCC4)ccc3n2C)c1` was tested. Which survival did it give?
The survival was inactive: 76%.

How did the survival turn out when `Cc1ccc(-c2cc(C(=O)N3CCN(S(=O)(=O)c4ccc(Br)cc4)CC3)[nH]n2)c(C)c1` was run?
Its survival is inactive: 63%.

For `CC(C)OCCCn1c(=O)c2ccccc2n2c(-c3ccccc3)nnc12`, which survival is on record?
Its survival is inactive: 113%.

For `CC(C)(C)C1CCc2c(sc(NC(=O)c3cccc(Cl)c3)c2C(=O)NCc2ccco2)C1` (stereo unspecified), which survival is on record?
Its survival is inactive: 119%.

How did the survival turn out when `CC(=O)c1ccc(NC(=O)C2CCN(c3nnc(C)c4c(C)n(-c5ccccc5)nc34)CC2)cc1` was run?
The survival was inactive: 83%.

How did the survival turn out when `O=C(NC1CCCCC1)N1CCCC(c2nc(-c3ccc(Cl)cc3)no2)C1` (stereo unspecified) was run?
Its survival is inactive: 86%.

`CCc1nn2c(=O)cc(COC(=O)Cc3ccccc3)nc2s1` was tested. Which survival did it give?
The survival was inactive: 59%.

Which survival does the source give for `O=C(Cc1ccccc1)Nc1sc2c(c1C(=O)Nc1cccc(Cl)c1)CCCCC2` here?
The survival was inactive: 91%.

How did the survival turn out when `COc1ccc(NCc2cccn2-c2nnc(N3CCCCCC3)s2)cc1` was run?
The survival was inactive: 78%.

For `COc1ccc(NC(=O)CSC2=Nc3ccccc3C3=NC(CC(=O)NCCc4ccccc4)C(=O)N23)cc1` (stereo unspecified), which survival is on record?
The survival was inactive: 64%.

With `O=C(NCc1ccco1)c1ccc(Cn2c(SCc3ccccc3)nc3cccnc32)cc1` as the molecule, how does the survival read?
Its survival is inactive: 73%.

Which survival does the source give for `COc1cc(OC)c(NC(=O)CCS(=O)(=O)c2ccc3c(c2)oc(=O)n3C)cc1Cl` here?
The survival was inactive: 83%.
